Data: PMC2991254
No constants are given. Whether binding was seen depends on the method and setting. Some binding calls cover weakened binding; strength is not graded here.

Amino acid sequences for entries named in this document (tags omitted). A change or cut given only in a name is not applied to a line headed by its entry. Chains listed by the source or under a name are the forms on record and can include a tag or linker.
UniProt P29384: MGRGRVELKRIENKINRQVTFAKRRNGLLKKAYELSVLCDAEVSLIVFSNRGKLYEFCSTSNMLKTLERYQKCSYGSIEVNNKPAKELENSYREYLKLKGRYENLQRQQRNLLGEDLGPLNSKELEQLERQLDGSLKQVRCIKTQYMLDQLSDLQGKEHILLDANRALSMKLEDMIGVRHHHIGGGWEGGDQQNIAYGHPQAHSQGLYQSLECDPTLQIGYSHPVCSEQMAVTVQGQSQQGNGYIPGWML
UniProt O64645: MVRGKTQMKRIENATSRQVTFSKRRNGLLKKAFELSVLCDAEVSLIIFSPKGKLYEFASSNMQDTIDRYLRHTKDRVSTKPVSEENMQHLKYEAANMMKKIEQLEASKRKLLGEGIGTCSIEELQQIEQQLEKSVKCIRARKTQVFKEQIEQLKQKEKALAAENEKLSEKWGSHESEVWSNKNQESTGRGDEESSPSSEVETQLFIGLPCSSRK
SOC1 MQD62-64SIPK (O64645, form named): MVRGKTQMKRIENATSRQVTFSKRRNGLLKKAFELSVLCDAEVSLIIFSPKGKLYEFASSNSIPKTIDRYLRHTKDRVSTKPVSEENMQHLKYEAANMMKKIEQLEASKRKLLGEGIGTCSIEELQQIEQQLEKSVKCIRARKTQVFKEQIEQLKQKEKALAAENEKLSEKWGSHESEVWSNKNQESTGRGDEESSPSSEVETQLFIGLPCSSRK
UniProt P17839: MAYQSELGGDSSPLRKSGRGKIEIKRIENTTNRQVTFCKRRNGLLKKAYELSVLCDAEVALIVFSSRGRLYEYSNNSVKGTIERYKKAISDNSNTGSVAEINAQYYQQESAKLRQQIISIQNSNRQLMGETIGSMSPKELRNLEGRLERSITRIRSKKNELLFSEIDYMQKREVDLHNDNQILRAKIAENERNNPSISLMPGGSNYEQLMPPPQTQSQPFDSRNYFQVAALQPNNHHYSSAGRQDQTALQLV
UniProt Q38840: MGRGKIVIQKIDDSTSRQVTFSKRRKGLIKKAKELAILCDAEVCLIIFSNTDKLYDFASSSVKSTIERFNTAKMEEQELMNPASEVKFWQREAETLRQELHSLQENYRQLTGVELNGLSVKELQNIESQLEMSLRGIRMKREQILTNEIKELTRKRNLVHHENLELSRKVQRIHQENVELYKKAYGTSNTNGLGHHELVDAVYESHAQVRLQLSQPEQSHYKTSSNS
UniProt O22456: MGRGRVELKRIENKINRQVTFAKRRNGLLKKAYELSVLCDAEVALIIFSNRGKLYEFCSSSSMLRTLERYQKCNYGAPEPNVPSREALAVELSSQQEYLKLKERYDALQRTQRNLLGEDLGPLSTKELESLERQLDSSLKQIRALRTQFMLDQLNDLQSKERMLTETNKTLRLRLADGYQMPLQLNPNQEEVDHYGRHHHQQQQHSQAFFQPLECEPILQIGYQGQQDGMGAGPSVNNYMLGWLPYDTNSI
UniProt Q38876: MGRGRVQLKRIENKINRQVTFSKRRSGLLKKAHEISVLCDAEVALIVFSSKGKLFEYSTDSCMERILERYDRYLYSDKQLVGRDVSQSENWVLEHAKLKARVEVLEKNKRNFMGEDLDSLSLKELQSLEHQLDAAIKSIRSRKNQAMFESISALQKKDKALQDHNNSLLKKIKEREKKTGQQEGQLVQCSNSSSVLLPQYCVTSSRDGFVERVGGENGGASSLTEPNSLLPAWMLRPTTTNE
UniProt P35631: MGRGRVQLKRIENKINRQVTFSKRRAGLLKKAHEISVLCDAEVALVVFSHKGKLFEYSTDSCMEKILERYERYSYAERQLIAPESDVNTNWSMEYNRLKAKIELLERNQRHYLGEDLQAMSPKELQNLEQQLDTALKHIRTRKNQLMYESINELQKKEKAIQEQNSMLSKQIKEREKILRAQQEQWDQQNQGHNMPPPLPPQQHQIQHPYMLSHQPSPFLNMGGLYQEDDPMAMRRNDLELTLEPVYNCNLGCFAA
UniProt P29382: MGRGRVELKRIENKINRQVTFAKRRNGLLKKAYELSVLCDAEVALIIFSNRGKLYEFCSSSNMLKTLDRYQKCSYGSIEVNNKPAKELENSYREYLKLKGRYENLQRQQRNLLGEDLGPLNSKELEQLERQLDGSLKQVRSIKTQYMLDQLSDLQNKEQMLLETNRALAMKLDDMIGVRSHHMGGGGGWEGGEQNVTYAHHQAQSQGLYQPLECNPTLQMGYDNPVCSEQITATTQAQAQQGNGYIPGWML
UniProt Q38838: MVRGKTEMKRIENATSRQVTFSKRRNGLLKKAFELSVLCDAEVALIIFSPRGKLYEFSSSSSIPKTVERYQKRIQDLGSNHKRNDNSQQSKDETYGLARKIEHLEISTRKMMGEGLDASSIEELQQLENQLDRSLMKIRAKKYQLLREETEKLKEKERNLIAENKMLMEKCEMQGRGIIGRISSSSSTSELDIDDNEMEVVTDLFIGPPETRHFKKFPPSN
AGL14 SIPK62-65MQD (Q38838, form named): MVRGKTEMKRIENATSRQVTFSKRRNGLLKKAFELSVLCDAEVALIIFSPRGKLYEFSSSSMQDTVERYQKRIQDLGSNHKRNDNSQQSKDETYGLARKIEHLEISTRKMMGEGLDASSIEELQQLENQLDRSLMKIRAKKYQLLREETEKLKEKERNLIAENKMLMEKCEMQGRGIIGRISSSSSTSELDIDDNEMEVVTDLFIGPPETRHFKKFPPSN
UniProt Q39081: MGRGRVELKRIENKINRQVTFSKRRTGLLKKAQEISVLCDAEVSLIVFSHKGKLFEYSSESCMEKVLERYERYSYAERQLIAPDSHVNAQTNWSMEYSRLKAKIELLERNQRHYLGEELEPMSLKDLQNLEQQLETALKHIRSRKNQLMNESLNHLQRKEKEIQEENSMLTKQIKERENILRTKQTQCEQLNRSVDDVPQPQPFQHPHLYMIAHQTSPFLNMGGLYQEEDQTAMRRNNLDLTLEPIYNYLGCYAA
UniProt P29385: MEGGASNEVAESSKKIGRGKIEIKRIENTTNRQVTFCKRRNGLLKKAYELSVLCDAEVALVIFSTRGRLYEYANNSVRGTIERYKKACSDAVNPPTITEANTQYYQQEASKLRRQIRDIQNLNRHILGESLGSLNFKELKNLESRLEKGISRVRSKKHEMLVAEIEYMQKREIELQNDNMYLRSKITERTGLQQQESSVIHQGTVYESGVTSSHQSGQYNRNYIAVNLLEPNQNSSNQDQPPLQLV
UniProt Q38836: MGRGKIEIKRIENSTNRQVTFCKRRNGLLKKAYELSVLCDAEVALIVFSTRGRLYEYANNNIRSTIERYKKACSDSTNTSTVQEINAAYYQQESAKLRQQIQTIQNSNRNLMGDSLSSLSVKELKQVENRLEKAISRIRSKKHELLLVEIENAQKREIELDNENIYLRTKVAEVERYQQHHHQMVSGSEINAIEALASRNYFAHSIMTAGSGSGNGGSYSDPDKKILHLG
UniProt A2RVQ5: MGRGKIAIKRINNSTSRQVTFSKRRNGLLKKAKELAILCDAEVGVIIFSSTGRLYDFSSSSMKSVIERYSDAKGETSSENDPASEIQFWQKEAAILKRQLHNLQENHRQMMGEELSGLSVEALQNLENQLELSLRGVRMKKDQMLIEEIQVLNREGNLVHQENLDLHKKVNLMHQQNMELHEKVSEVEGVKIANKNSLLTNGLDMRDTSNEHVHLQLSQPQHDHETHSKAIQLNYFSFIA

Columns and labels:
Experiment in all cases: two-hybrid; matrix-based yeast two-hybrid, GAL4-AD and GAL4-BD fusions (pDEST22, pDEST32), in duplicate, at least two reporter genes; medium lacking Leu, Trp and His with 1 mM 3-amino-1,2,4-triazole, growth scored after 4 days at 20°C
[1] = target: SEP2 (Arabidopsis thaliana) (UniProt P29384)
[2] = target: T1, AGL15 (Arabidopsis thaliana) (UniProt Q38847)
T1 sequence: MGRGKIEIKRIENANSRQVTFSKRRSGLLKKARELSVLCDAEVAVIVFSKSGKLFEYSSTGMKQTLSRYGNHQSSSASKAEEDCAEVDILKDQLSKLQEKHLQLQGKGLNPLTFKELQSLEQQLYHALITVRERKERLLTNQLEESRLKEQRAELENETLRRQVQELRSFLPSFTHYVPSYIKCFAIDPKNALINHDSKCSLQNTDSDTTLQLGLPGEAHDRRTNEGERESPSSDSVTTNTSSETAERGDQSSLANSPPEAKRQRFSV

[3] = target: SUPPRESSOR OF OVEREXPRESSION OF CO 1 (Arabidopsis thaliana) (UniProt O64645)
[4] = target: AGAMOUS (Arabidopsis thaliana) (UniProt P17839)
[5] = target: AGL17 (Arabidopsis thaliana) (UniProt Q38840)
[6] = target: SEP3 (Arabidopsis thaliana) (UniProt O22456)
[7] = target: FRUITFUL (Arabidopsis thaliana) (UniProt Q38876)
[8] = target: T2, XAL1 (Arabidopsis thaliana) (UniProt Q38841)
T2 sequence: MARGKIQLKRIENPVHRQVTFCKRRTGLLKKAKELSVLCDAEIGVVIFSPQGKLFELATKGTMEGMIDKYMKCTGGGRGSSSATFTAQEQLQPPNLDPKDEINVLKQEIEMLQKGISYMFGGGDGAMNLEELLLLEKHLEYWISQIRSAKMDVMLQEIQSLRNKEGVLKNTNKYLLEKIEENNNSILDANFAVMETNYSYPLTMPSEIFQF

[9] = target: APETALA1 (Arabidopsis thaliana) (UniProt P35631)
[10] = target: SEP1 (Arabidopsis thaliana) (UniProt P29382)
[11] = target: AGAMOUS LIKE14 (Arabidopsis thaliana) (UniProt Q38838)
[12] = target: CAULIFLOWER (Arabidopsis thaliana) (UniProt Q39081)
[13] = target: …OOF2 (Arabidopsis thaliana) (UniProt P29385)
… (Arabidopsis thaliana) = … (Arabidopsis thaliana) (UniProt Q38836)
[14] = target: AGL16 (Arabidopsis thaliana) (UniProt A2RVQ5)

| Substance | binding [1] | binding [2] | binding [3] | binding [4] | binding [5] | binding [6] | binding [7] | binding [8] | binding [9] | binding [10] | binding [11] | binding [12] | binding [13] | binding (… (Arabidopsis thaliana)) | binding [14] |
| --- | --- | --- | --- | --- | --- | --- | --- | --- | --- | --- | --- | --- | --- | --- | --- |
| AGAMOUS LIKE14 (from UniProt Q38838 1-221) | no binding | no binding | binds | no binding | no binding | no binding | binds | no binding | no binding | no binding | no binding | no binding | no binding | no binding | binds |
| SVP1 C58S/S61R (from UniProt Q9FVC1 1-240) | no binding | no binding | binds | no binding | no binding | binds | no binding | no binding | no binding | no binding | no binding | no binding | no binding | no binding | binds |
| CAL V66I/N150Y (from UniProt Q39081 1-255) | no binding | no binding | no binding | no binding | no binding | no binding | no binding | no binding | no binding | no binding | no binding | no binding | no binding | no binding | no binding |
| CAL N150Y (from UniProt Q39081 1-255) | binds | no binding | binds | binds | binds | binds | binds | no binding | binds | binds | binds | no binding | binds | no binding | binds |
| CAL V66I (from UniProt Q39081 1-255) | binds | no binding | binds | no binding | no binding | binds | binds | binds | binds | binds | no binding | no binding | binds | no binding | binds |
| SOC1 MQD62-64SIPK (from UniProt O64645 1-214) | no binding | no binding | binds | no binding | no binding | binds | no binding | no binding | no binding | binds | no binding | no binding | no binding | no binding | no binding |
| AP1 I66V/Y148N (from UniProt P35631 1-256) | no binding | no binding | no binding | no binding | no binding | no binding | no binding | no binding | no binding | no binding | no binding | no binding | no binding | no binding | no binding |
| AGL14 SIPK62-65MQD (from UniProt Q38838 1-221) | binds | no binding | binds | no binding | no binding | binds | binds | binds | binds | no binding | no binding | no binding | binds | no binding | binds |
| SVP1 C58S (from UniProt Q9FVC1 1-240) | binds | no binding | binds | binds | binds | binds | binds | no binding | binds | binds | binds | no binding | binds | no binding | binds |
